# “And” between values parts separate entries of the source, which are not always exact repeats. Equal values may be shown once. The whole screen tested about 360,000 compounds, of which about 25,000 (6.9%) were called active. The shares of active, inactive and inconclusive entries below differ from those in the screen. Calls come from the whole dose curve; as a rule, active = well fitted inhibition curve with a large enough effect; inconclusive = small, poorly fitted or top-dose-only effect; inactive = flat fitted curve, though single readings scatter. Potencies of inconclusive entries are doubtful fits and often do not repeat.
# Biological target: Luciferin 4-monooxygenase (Photinus pyralis) (UniProt P08659)
# Chain of UniProt P08659 (P08659 whole entry, looked up): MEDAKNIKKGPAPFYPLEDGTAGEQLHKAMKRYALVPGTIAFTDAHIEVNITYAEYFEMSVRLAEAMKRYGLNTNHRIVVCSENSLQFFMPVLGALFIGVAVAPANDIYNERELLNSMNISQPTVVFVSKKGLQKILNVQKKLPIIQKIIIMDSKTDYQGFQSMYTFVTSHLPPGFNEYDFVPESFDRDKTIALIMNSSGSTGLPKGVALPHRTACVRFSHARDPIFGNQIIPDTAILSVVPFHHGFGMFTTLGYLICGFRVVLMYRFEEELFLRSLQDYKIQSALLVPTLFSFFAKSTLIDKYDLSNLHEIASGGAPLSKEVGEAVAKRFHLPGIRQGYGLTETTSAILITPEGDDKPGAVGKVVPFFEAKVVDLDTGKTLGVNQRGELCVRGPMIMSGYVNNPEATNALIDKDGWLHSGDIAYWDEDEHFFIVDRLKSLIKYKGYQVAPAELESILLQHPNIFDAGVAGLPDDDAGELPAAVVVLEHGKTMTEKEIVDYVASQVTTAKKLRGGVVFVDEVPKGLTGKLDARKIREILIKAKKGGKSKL
# Test: qHTS profiling assay for firefly luciferase inhibitor/activator using purifed enzyme and Km concentrations of substrates (counterscreen for miR-21 project); note: nearly all actives have a fitted effect of over 55% in size;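 for activity change, negative = inhibition: plate controls were vehicle for no effect and reference inhibitor for full effect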
# Conditions: purified FLuc, luminescence inhibition; series mostly up to 57.5 µM; activity change, negative = inhibition: at the top concentration
# Procedure, shortened: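 Purified P. pyralis luciferase (10nM final) with 10uM D-luciferin and 10uM ATP (Km levels) in 50mM Tris acetate pH 7.5, 10mM Mg acetate, 0.01% Tween-20, 0.05% BSA; qHTS 6-point titration, ~60 µM downward; luminescence read.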
# Potency is the fitted concentration of half-maximal effect; tags give direction and shape of the fitted curve.
SMILES,Potency,"activity change, negative = inhibition"
CC(=O)c1ccc(N2CCN(C(=O)Nc3ccc(F)cc3)CC2)cc1,"inconclusive: 37.9 µM [inhibitor, partial curve, poor fit]",–
c1ccc2c(c1)CCN(c1nc3cc4c(cc3s1)OCCO4)C2,active: 0.107 µM,–
COc1ccc(NC(=O)/C=C/c2ccc(Br)o2)cn1,"inconclusive: 26.9 µM [inhibitor, partial curve]",–
CCCC(=O)N1CCN(c2ccc(NC(=O)c3cc4ccccc4o3)cc2Cl)CC1,"inconclusive: 23.9 µM [inhibitor, partial curve]",–
O=C(NCc1ccc(F)cc1)c1cc2c(s1)CS(=O)(=O)C2,–,inactive: -1.88%
CN(C)c1ccc(-c2noc(C3CCN(S(=O)(=O)c4cccc(C(=O)O)c4)CC3)n2)cc1,"inconclusive: 23.9 µM [inhibitor, single point]",–
O=C(CCN1C(=O)c2cccc3cccc(c23)C1=O)NC1CCS(=O)(=O)C1 (stereo not given),"inconclusive: 21.3 µM [inhibitor, partial curve, poor fit]",–
Cc1ccccc1C(=O)O/N=C/c1c(N2CCOCC2)n(C)c2ccccc12,"inconclusive: 19 µM [inhibitor, partial curve]",–
COc1ccc(Cl)cc1NC(=O)c1c(NCc2cccnc2)sc2c1CCC(C)C2 (stereo not given),"inconclusive: 26.9 µM [inhibitor, partial curve, poor fit]",–
Cc1ccccc1C(=O)Nn1cnc2ccccc2c1=O,"inconclusive: 26.9 µM [inhibitor, partial curve]",–
O=C(COC(=O)c1ccco1)Nc1nc2ccc([N+](=O)[O-])cc2s1,active: 19 µM,–
CCN1CCN(Cc2ccc(NC(=O)c3ccc(C)c(NC(=O)C(=O)c4c[nH]c5ccccc45)c3)cc2C(F)(F)F)CC1,"inconclusive: 23.9 µM [inhibitor, partial curve] and inconclusive: 26.9 µM [inhibitor, single point]",–
Cc1cc(C)cc(NC(=O)COC(=O)c2cccc(S(=O)(=O)N3CCCCC3)c2)c1,–,inactive: 0.684%
CCN(c1ccccc1)S(=O)(=O)c1ccc(OC)c(NC(=O)CCc2nc3ccccc3c(=O)[nH]2)c1,–,inactive: -1.87%
COc1ccc(S(=O)(=O)Nc2ccc3c(c2)sc(=O)n3C)cc1Cl,–,inactive: -19.7%
CC(=O)Nc1ccc(C(=O)Nc2ccc3c(c2)OCO3)cc1,"inconclusive: 26.9 µM [inhibitor, single point]",–
COc1cc(/C=N/NC(=O)NC23CC4CC(CC(C4)C2)C3)ccc1O,"inconclusive: 33.8 µM [inhibitor, single point]",–
COc1ccc(F)cc1S(=O)(=O)NCCN1CCOCC1,–,inactive: 3.78%
Cn1c(NCc2cccs2)nc2ccccc21,"inconclusive: 16.9 µM [inhibitor, partial curve]",–
Cc1ccc(NC(=O)CSc2nnc(COc3ccc(Cl)cc3)o2)cc1,–,inactive: -10.1%
Cn1c(NN)nc2c1c(=O)n(Cc1ccccc1)c(=O)n2C,"inconclusive: 21.3 µM [inhibitor, partial curve, poor fit]",–
Cc1ccc(/C=C/C(=O)NCc2cccs2)o1,"inconclusive: 21.3 µM [inhibitor, partial curve, poor fit]",–
COc1cccc(Nc2nc3ccc(OC)cc3s2)c1,active: 4.26 µM,–
COc1ccccc1OCCCCn1c(C(C)O)nc2ccccc21 (stereo not given),–,inactive: 2.66%

SMILES,Potency,"activity change, negative = inhibition"
CCc1ccc(C(=O)c2cc3ccc(O)cc3oc2=O)cc1,"inconclusive: 26.9 µM [inhibitor, partial curve, poor fit]",–
COc1ccccc1C(=O)Nc1sc2c(c1C#N)CCC2,"inconclusive: 2.69 µM [inhibitor, full curve]",–
C/C(=N\Nc1ccccn1)c1ccc(N2CCOCC2)cc1,active: 13.5 µM,–
COc1ccccc1C(=O)NCC(=O)OCc1ccc(Br)cc1,"inconclusive: 23.9 µM [inhibitor, single point]",–
O=C(NCc1ccccn1)c1cc(-c2ccccc2)on1,"inconclusive: 37.9 µM [inhibitor, single point]",–
Cc1cc(C(=O)Nc2ccc3c(c2)OCCO3)c(C)o1,active: 7.57 µM,–
CCOc1cc(/C=C/c2ccc3cccc([N+](=O)[O-])c3n2)ccc1O,"inconclusive: 19 µM [inhibitor, partial curve]",–
O=C1C2=C(C(=O)c3ccccc31)C1O[C@](c3ccsc3)(Cc3ccccc31)O2,–,inactive: 0.744% [at 11.5 µM]
COc1ccccc1OCCN1C(=O)S/C(=C\c2ccco2)C1=O,"inconclusive: 30.1 µM [inhibitor, partial curve, poor fit]",–
COc1cccc(NC(=O)C2CC(=O)N/C(=N/NC(=O)c3ccc(C)cc3)S2)c1 (stereo not given),"inconclusive: 37.9 µM [inhibitor, single point]",–
O=C(/C=C/c1ccco1)N1CCN(c2ccccc2)CC1,"inconclusive: 37.9 µM [inhibitor, partial curve, poor fit]",–
CN(C)c1ccc(C(C(=O)NCC2CCCO2)N(Cc2ccccc2)C(=O)c2snc(C(N)=O)c2N)cc1 (stereo not given),–,inactive: 0.0475%
O=C(N/N=C\C=C\c1ccc2c(c1)OCO2)c1ccc(F)cc1,"inconclusive: 13.5 µM [inhibitor, partial curve, poor fit]",–
O=c1c2c(nc3cc(-c4cccc(Cl)c4)[nH]n13)CCCC2,active: 0.478 µM,–
CCn1c(C)nc2cc(C(=O)N=Nc3c(O)[nH]c4ccccc34)ccc21,active: 6.01 µM,–
O=C(Nc1ccccc1)Nc1ccccc1NS(=O)(=O)c1cccs1,"inconclusive: 37.9 µM [inhibitor, single point]",–
COc1ccc(C(=O)CC(=O)c2ccc(C)cc2)c(O)c1,active: 21.3 µM,–
O=C(CSc1nccn1-c1ccccc1)Nc1ccc2c(c1)OCO2,"inconclusive: 26.9 µM [inhibitor, single point]",–
COc1ccc(/C=C/C(=O)N2CCCc3ccccc32)cc1,"inconclusive: 37.9 µM [inhibitor, single point]",–
Cc1nnc2ccc(-c3cccc(NS(=O)(=O)c4ccccc4[N+](=O)[O-])c3)nn12,"inconclusive: 21.3 µM [inhibitor, partial curve, poor fit]",–
O=C(CSc1nc2ccccc2c(=O)n1CCCO)NC1CC1,–,inactive: 0.433%
O=C(CSc1ccccc1C(=O)NCc1ccccc1)NC12CC3CC(CC(C3)C1)C2,"inconclusive: 23.9 µM [inhibitor, partial curve, poor fit]",–
COc1ccccc1NC1=C(Cl)C(=O)N(c2ccccc2)C1=O,"inconclusive: 37.9 µM [inhibitor, partial curve, poor fit]",–
CCc1nc(NCC2CCCO2)c2oc3ccccc3c2n1 (stereo not given),"inconclusive: 37.9 µM [inhibitor, partial curve, poor fit]",–

SMILES,Potency,"activity change, negative = inhibition"
COC(=O)CNC(=O)c1cccc(-c2ccc(OC)cc2)c1,active: 19 µM,–
CCCCC(=O)N1CCCC(c2nc(-c3cccc(OC)c3)no2)C1 (stereo not given),active: 16.9 µM,–
N[C@@H](Cc1c[nH]c2ccc(O)cc12)C(=O)O,"inconclusive: 37.9 µM [inhibitor, single point]",–
COc1cnc(-c2cccc(C(F)(F)F)c2)[nH]c1=O,–,inactive: -8.33%
O=C(CSc1n[nH]c(-c2cccs2)n1)N1CCCCC1,"inconclusive: 21.3 µM [inhibitor, single point]",–
Cc1ccc(-n2nc3ccc(N)cc3n2)c(C)c1,active: 7.57 µM,–
O=[n+]1cc(-c2cc3ccccc3o2)n([O-])c2c1CCCC2,"inconclusive: 37.9 µM [inhibitor, single point]",–
CCC(=O)N1c2ccccc2CC1C(=O)N1CCN(c2cccc(OC)c2)CC1 (stereo not given),–,inactive: 1.83%
Cc1ccc(C)c(NC(=O)c2ccc(OC(=O)c3ccco3)cc2)c1,"inconclusive: 15.1 µM [inhibitor, partial curve]",–
CC(=O)c1ccc(S(=O)(=O)Nc2ccc(-c3ccc(N4CCCCC4)nn3)cc2)cc1,active: 8.49 µM,–
CCc1ccc(NC(=O)Cn2ccn(-c3ccc(OC)cc3)c(=O)c2=O)cc1,"inconclusive: 19 µM [inhibitor, partial curve, poor fit]",–
CNC(=S)NNC(=O)c1sc2cc(C(F)(F)F)cnc2c1-c1ccccn1,"inconclusive: 19 µM [inhibitor, partial curve, poor fit]",–
COc1ccc(Nc2nc(-c3ccc4c(c3)NC(=O)CO4)cs2)cc1,"inconclusive: 13.5 µM [inhibitor, partial curve]",–
O=C(NC(=O)c1ccccc1)Nc1ccccc1,"inconclusive: 0.601 µM [inhibitor, full curve, poor fit]",–
O=C(NC(=S)Nc1ccc(Br)cn1)c1cccs1,active: 3.79 µM,–
Cc1cc(C)nc(N/N=C/C2=C(O)CC(c3ccccc3)CC2=O)n1 (stereo not given),–,inactive: 0.507%
Cc1ccc(-c2csc(NC(=O)Cc3ccc(F)cc3)n2)o1,"inconclusive: 23.9 µM [inhibitor, single point]",–
O=Cc1cccn1-c1ccc2ccccc2c1,"inconclusive: 37.9 µM [inhibitor, single point]",–
CCOc1ccc(S(=O)(=O)Nc2cccc(-c3ccc(N4CCCC4)nn3)c2)cc1,"inconclusive: 10.7 µM [inhibitor, partial curve]",–
Cc1ccc2c(c1)-c1onc(C(=O)N(C)c3cccc(C(F)(F)F)c3)c1CO2,"inconclusive: 9.53 µM [inhibitor, partial curve, poor fit]",–
Cc1cccc(C)c1NC(=O)CNC(=O)C1CC(=O)N(Cc2ccccc2)C1 (stereo not given),–,inactive: -1.56%
CCOC(=O)c1ccc(N/C=C/C(=O)c2ccccc2)cc1,active: 6.01 µM,–

# Source: PubChem BioAssay AID588342 (National Center for Advancing Translational Sciences (NCATS), 2011)
